Test results from PubChem BioAssay AID360 (National Center for Advancing Translational Sciences (NCATS), 2006).
The campaign covered roughly 48,000 compounds. About 550 (1.1%) were called active. Another 4% or so got no clear call; they are omitted. Rule as the data show it: active = potency below about 15 µM; inconclusive = mostly about 16 µM to 33 µM; inactive = weaker than that. The list shows a part of the results.

target: Lysosomal acid glucosylceramidase (Homo sapiens) (UniProt P04062); assay: Glucocerebrosidase; conditions: purified enzyme, resorufin glucoside fluorescence (screen aimed at inhibitors), 20 min;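 also: the screen sought inhibitors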
Chain of UniProt P04062 (P04062 whole entry, looked up): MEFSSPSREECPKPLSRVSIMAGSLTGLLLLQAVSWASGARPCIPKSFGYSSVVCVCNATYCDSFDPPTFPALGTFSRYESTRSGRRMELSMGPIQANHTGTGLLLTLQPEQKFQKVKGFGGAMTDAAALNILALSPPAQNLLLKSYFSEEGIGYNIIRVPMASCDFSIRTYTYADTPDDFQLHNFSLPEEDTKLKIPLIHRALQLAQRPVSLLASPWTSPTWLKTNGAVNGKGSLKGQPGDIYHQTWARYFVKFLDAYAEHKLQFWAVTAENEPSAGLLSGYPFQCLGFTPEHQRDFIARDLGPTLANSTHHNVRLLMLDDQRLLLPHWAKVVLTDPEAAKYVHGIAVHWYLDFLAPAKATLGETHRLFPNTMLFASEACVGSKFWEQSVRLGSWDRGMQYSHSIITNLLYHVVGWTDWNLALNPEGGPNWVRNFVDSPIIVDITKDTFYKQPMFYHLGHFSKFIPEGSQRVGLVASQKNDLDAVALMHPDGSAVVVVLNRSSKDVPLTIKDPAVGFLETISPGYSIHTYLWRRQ
Procedure, shortened: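 Normal human glucocerebrosidase (0.2 nM final) was assayed with resorufin β-D-glucopyranoside (30 uM final) in 50mM citric acid/KH2PO4, 10mM sodium taurocholate, 0.01% tween-20, pH 5.9. Compounds were titrated; fluorescence (Ex 548, Em 600) read after 20 min at RT.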
Potency is read from the fitted curve at half-maximal effect.

Potency, inactive:
Cn1c(SCC(=O)NC2CCCCCC2)nnc1-c1cccs1 > 76.9 µM
COc1ncnc2c1oc1nc(CC(C)C)c3c(c12)CCCC3 > 76.9 µM
COCCn1c(CN2CCN(c3ccccc3)CC2)nc2c1c(=O)n(C)c(=O)n2C > 76.9 µM
CC(C)n1c(SCC(=O)NCc2ccco2)nc2c1c(=O)n(C)c(=O)n2C > 76.9 µM
CCOc1nc(S(=O)(=O)c2ccc(C)cc2)c(Cl)s1 > 76.9 µM
O=C(O)CSc1nnc(CNc2cccc(C(F)(F)F)c2)n1Cc1ccco1 > 76.9 µM
COc1ccccc1NC(=O)N(Cc1ccco1)Cc1cc2cccc(C)c2[nH]c1=O > 76.9 µM
COc1cc(C2c3c(n[nH]c3C)C(=O)N2c2ccc(C)cc2)ccc1O (stereo not drawn) > 76.9 µM
O=C(CN1CCOCC1)Nc1ccc(S(=O)(=O)NC2CCCCC2)cc1 > 76.9 µM
Nn1cc(-c2ccccc2)nc1SCC(=O)NC1CCS(=O)(=O)C1 (stereo not drawn) > 76.9 µM
O=C1NC(=S)S/C1=C1\Sc2ccccc2N1CCCS(=O)(=O)O > 76.9 µM
CC1(C(=O)NC2CCCCCC2)CCC(=O)N1Cc1ccc2c(c1)OCO2 (stereo not drawn) > 76.9 µM
CCS(=O)(=O)CCSc1nc(C)cc(C)c1C#N > 76.9 µM
CSc1nc(N2CCOCC2)c2c(c1C#N)CCCCC2 > 76.9 µM
CN1CCN(S(=O)(=O)c2ccc(NC(=O)c3csc4ccccc34)cc2)CC1
CCSc1nc(C)c(CC)c(C)c1C(N)=O > 76.9 µM
Cc1noc(C)c1CSc1nc2[nH]ncc2c(=O)n1-c1ccccc1 > 76.9 µM
O=C1c2oc3ccc(F)cc3c(=O)c2C(c2ccccc2)N1CC1CCCO1 (stereo not drawn) > 76.9 µM
O=C(CCCn1c(=O)oc2ccccc21)N1CCc2ccccc2C1 > 76.9 µM
CC(C)(C)c1cc(CN2CCOCC2)c(C(=O)O)o1 > 76.9 µM
O=C(c1ccc(Cn2c(=O)[nH]c3ccccc3c2=O)cc1)N1CCN(c2ccc(F)cc2)CC1 > 76.9 µM
CCCCN(C)S(=O)(=O)c1cc(Br)cc2c1N(C(=O)C1CC1)CC2 > 76.9 µM
CC(C)CN(C(=O)c1ccc(=O)n(C)n1)c1nc2ccccc2s1 > 76.9 µM
CCOC(=O)CC(=O)CSC1=C(C#N)C(c2ccccc2OC)CC(=O)N1 (stereo not drawn) > 76.9 µM
COc1ccc(-c2noc(N(C)CC(=O)Nc3cccc(C(F)(F)F)c3)n2)cc1 > 76.9 µM
Cc1cc(NC(=O)CCC(=O)N(CC2CCCO2)C(C(=O)NC2CCCC2)c2ccccc2C)no1 (stereo not drawn) > 76.9 µM
O=S1(=O)CCN=C2SC3=C(CCCC3)N21 > 76.9 µM
O=C(O)c1ccccc1NS(=O)(=O)c1ccc2c3c(cccc13)C(=O)N2 > 76.9 µM
COCCn1nnnc1C(c1ccc(OC)cc1OC)N1CCN(c2ccccc2)CC1 (stereo not drawn) > 76.9 µM
O=c1c2c([nH]c3ccc(Br)cc13)CCCC2
COc1ccc(C(=O)NC2CCN(C(=O)NC3CCCCC3)CC2)cc1 > 76.9 µM
Fc1ccc(NCc2nnc(SCc3nnc(-c4ccccc4)o3)n2CC2CCCO2)cc1 (stereo not drawn) > 76.9 µM
Cc1nc2ccc(S(=O)(=O)N(C)CC(=O)N3CCc4ccccc4C3)cc2s1 > 76.9 µM
Cc1cccc(-n2nnc(C(=O)N3CCc4ccccc4C3)c2N)c1 > 76.9 µM
O=C(CSc1nnc(C23CC4CC(CC(C4)C2)C3)o1)Nc1ccc(N2CCOCC2)c(Cl)c1
Cc1ccc(S(=O)(=O)Nc2cc(C)nn2-c2ccccc2)cc1 > 76.9 µM
Cc1occc1-c1nnc(SCC(=O)c2ccc(F)cc2)o1 > 76.9 µM
Cc1cc(C)nc(N2CCC(C(=O)O)CC2)n1 > 76.9 µM
O=C(Nc1ccccc1C(=O)N1CCOCC1)c1cccc(S(=O)(=O)N2CCCC2)c1 > 76.9 µM
CCCN(C(=O)CSc1nnc(-c2ccoc2C)n1N)C1CCS(=O)(=O)C1 (stereo not drawn) > 76.9 µM
Cc1ccc(NC(=O)CCNS(=O)(=O)c2ccc3c(c2)oc(=O)n3C)cc1C > 76.9 µM
CCOc1ccc(-c2nc(N)nc(C)c2-c2ccc(OC)c(OC)c2)c(O)c1 > 76.9 µM
CCn1cc(C(=O)NCc2ccc3c(c2)OCO3)c(=O)c2cc(F)c(N3CCN(C)CC3)cc21 > 76.9 µM
O=C(CSc1nc2c(c(=O)n1-c1ccc(Cl)cc1)SCC2)NCC1CCCO1 (stereo not drawn) > 76.9 µM
COc1cc(C(=O)OCCN2CCOCC2)ccc1O > 76.9 µM
COCCCN1C(=O)C(=O)/C(=C(/O)c2ccc(OC)cc2)C1c1cccc(OC)c1 (stereo not drawn) > 76.9 µM
O=C(COc1ccc(Cl)cc1Cl)NC(=O)N1CCCCC1 > 76.9 µM
CCCn1c(SCC(=O)N2CCN(c3ccc(OC)cc3)CC2)nc2c1c(=O)n(C)c(=O)n2C > 76.9 µM
Cc1ncn(C23CC4CC(CC(O)(C4)C2)C3)n1 > 76.9 µM
CCOc1ccccc1N1CCN(Cc2cccc(OC)c2O)CC1 > 76.9 µM
C=CCN=C1SCC(=O)N1S(=O)(=O)c1ccc(C)cc1 > 76.9 µM
O=C(c1cccc(F)c1)N1CCc2ccccc2C1 > 76.9 µM
Cc1cc(C(=O)Nc2sc3c(c2C#N)CCC3)no1 > 76.9 µM
COc1ccc(N2C3=[N+](CCCC3)CC2(C)O)cc1 (stereo not drawn) > 76.9 µM
c1cc(-c2nnc3n2CCC3)[nH]n1 > 76.9 µM
O=C(CCn1c(=S)[nH]c2cc3c(cc2c1=O)OCO3)N1CCN(c2ccccn2)CC1 > 76.9 µM
CCOC(=O)c1ccc(CC(=O)c2oc3cc(O)ccc3c2C)o1 > 76.9 µM
CCOC(=O)C1CCN(C(=O)COC(=O)c2ccc(Br)o2)CC1 > 76.9 µM
Cc1cc(C)nc(SCC(=O)NC2=NC(=O)C(C)S2)n1 (stereo not drawn) > 76.9 µM
COc1ccc(NC(=O)CSc2nc3ccccc3c(=O)n2-c2ccc3c(c2)OCO3)c(OC)c1 > 76.9 µM
CCCCN(CCCC)S(=O)(=O)c1ccc(C(=O)Nc2nnc(CSC)o2)cc1 > 76.9 µM
CCOC(=O)C1=C(C)NC2=C(C(=O)CC(c3ccc(OC)c(OC)c3)C2)C1c1ccc(C)o1 (stereo not drawn) > 76.9 µM
Cc1coc(NC(=O)CSc2nc(-c3ccncc3)cc(C(F)(F)F)c2C#N)n1 > 76.9 µM
CC(C)c1nnc(NC(=O)c2c(O)c3cccc4c3n(c2=O)CCC4)s1 > 76.9 µM
Cc1csc(SCc2c(C(=O)O)oc3ccccc23)n1 > 76.9 µM
CCOc1cccc(-c2nnc3sc(COc4ccc(Cl)cc4)nn23)c1 > 76.9 µM
CCOC(=O)C1CCCN(CC(=O)Nc2c(C(=O)OC)[nH]c3ccc(Cl)cc23)C1 (stereo not drawn) > 76.9 µM
CCCC(=O)Nc1ccc(N2CCN(C(=O)CCC)CC2)cc1 > 76.9 µM
COc1ccc(OC)c(NC(=O)Cn2cc(C#N)c3ccccc32)c1 > 76.9 µM
C=CCOc1ccccc1CNn1nnnc1N > 76.9 µM
CCCCCn1c(CCNC(=O)c2cccs2)nc2ccccc21 > 76.9 µM
Cc1cc(C(=O)CSCc2nnc3n(CCC(C)C)c(=O)c4ccccc4n23)c(C)n1C > 76.9 µM
CCOC(=O)CN1C(=O)C(O)(c2c(C)[nH]c3ccccc23)c2ccccc21 (stereo not drawn) > 76.9 µM
Cn1c(NCc2ccccc2)cc(=O)n(C)c1=O > 76.9 µM
N#CCSc1nnc(C2CCCCC2)n1-c1ccccc1 > 76.9 µM
COc1ccc(OC)c(C2C3=C(CCCC3=O)Nc3nc4ccccc4n32)c1 (stereo not drawn) > 76.9 µM
c1ccc2c(-c3nc(C4CCCCC4)no3)cc(-c3ccncc3)nc2c1 > 76.9 µM
COCCCN1C(=O)C(=O)/C(=C(/O)c2ccc(OCC(C)C)cc2)C1c1cccnc1 (stereo not drawn) > 76.9 µM
O=C(CCc1ccccc1)Nc1ccc(Cl)cn1 > 76.9 µM
Cn1c(=O)[nH]c(=O)c2c1nc(Br)n2CC(O)COCc1ccccc1 (stereo not drawn) > 76.9 µM
CCN(CC)S(=O)(=O)c1ccc(F)c(C(=O)NCCCN2CCOCC2)c1 > 76.9 µM
Cn1nccc1C(=O)OCC(=O)Nc1nc(-c2ccccc2)cs1 > 76.9 µM
O=C(CCC1CCCC1)N1CCN(C(=O)C2CC2)CC1 > 76.9 µM
O=C(O)c1cccc(S(=O)(=O)NCc2cccs2)c1 > 76.9 µM
CC(C)CCN(C(=O)CNC(=O)c1ccco1)C(C(=O)NC1CCCCC1)c1ccco1 (stereo not drawn) > 76.9 µM
Cc1ccccc1Cn1ccc(NC(=O)CCSc2nc(-c3ccco3)cc(C(F)(F)F)n2)n1 > 76.9 µM
CCC(C)(C)n1nnnc1C(C(C)C)N(CCCO)Cc1cc2cc(C)ccc2[nH]c1=O (stereo not drawn) > 76.9 µM
O=C(CCCC(=O)N(CC(=O)NC1CCCC1)Cc1ccccc1)Nc1ccccn1 > 76.9 µM
